# From paper PMC6919601, “Identification of Plasmodium dipeptidyl aminopeptidase allosteric inhibitors by high throughput screening” (PLoS ONE, 2019)
# Among all 110,000 compounds or so, about 230 (0.21%) showed an effect of 50% or more. This is one part of the list.
# Molecular target: DPAP1 (Plasmodium falciparum, UniProt Q8IIJ9)
# Assay: primary screen, percent inhibition; read by cleavage of a fluorogenic dipeptide substrate; higher = more effect of the substance
# Parameters: species or system P. falciparum D10 trophozoite lysates; single well
# 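Further: 30 min substrate incubation versus DMSO and 10 µM JCP410 controls.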
# DPAP1, sequence (Q8IIJ9 whole entry, looked up): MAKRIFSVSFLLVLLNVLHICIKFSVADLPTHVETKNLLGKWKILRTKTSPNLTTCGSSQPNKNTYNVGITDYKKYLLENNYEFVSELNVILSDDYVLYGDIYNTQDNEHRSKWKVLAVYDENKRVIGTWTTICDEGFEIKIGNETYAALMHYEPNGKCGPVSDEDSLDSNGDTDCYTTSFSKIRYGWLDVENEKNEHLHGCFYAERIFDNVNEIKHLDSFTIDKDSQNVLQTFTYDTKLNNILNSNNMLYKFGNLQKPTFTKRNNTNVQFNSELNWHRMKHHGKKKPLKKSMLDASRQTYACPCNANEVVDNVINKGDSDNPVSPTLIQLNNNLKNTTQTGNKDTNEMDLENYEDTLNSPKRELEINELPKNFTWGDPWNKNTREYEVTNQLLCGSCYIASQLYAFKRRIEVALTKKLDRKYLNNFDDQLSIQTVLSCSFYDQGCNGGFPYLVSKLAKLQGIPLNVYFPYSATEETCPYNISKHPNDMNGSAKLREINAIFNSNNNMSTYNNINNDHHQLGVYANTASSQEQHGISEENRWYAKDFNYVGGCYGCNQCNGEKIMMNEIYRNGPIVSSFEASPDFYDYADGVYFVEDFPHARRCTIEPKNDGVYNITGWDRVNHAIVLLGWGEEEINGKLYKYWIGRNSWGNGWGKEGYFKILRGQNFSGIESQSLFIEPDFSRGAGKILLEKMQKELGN
row,SMILES,% Inhibition @ 10 uM
1,c1ccc(-c2cn3c4ccccc4nc3n2CCN2CCCCC2)cc1,-3.32%
2,Cc1ccccc1NC(=O)c1cc2ccccc2oc1=O,4.12%
3,Cc1c(C(=O)N2CCCC2)cccc1[N+](=O)[O-],-0.856%
4,CCN(CCCc1ccccc1)CCN(C)C,-5.26%
5,NC(=O)CSc1nc(SCC(N)=O)c2c3c(sc2n1)CN(Cc1ccccc1)CC3,-4.33%
6,COc1cc(Br)cc(C=O)c1O,3.66%
7,O=C(Nc1nc(-c2ccc(S(=O)(=O)N3CCOCC3)cc2)cs1)C1COc2ccccc2O1 (stereo not drawn),1.64%
8,O=c1c2cc3c(=O)n(-c4ccccc4O)c(=O)c3cc2c(=O)n1-c1ccccc1O,-0.0369%
9,CN(Cc1ccccc1)C(=O)CN(C)S(=O)(=O)c1ccc2[nH]c3c(c2c1)CCCC3,-3.6%
10,Cc1ccc2oc3c(c(=O)c2c1)C(c1ccc(O)cc1)N(CCCN1CCOCC1)C3=O (stereo not drawn),-2.91%
11,CCOc1ccc2ccccc2c1/C=C1/NC(=O)N(c2ccccc2)C1=O,0.722%
12,CN(CC(=O)NCc1ccc(Cl)cc1)c1nnc(N2CCCC2=O)s1,-6.38%
13,CCc1nc(NC(=O)NS(=O)(=O)c2ccccc2C(=O)OC)nc(OC)n1,13.3%
14,FC(F)Oc1ccccc1C1C=C(c2ccc(Cl)cc2)Nc2ncnn21 (stereo not drawn),4.86%
15,COc1ccc(C(=O)/C=C/c2ccc([N+](=O)[O-])cc2)cc1,-3.58%
16,Cc1cccc(NC(=O)CN2C(=O)C3C4C=CC(C4)C3C2=O)c1C (stereo not drawn),5.49%
17,CCOC(=O)c1cc2c(C)nn(-c3ccccc3)c2s1,4.17%
18,COc1ccc(NC(=O)Nc2ccc(OC)cc2)cc1,-0.0494%
19,CCSCCOC(=O)C1=C(C)N(C)C(=O)NC1c1ccc(OC)cc1 (stereo not drawn),-2.87%
20,Cc1ccc(N2C(=O)NC(=O)/C(=C/Nc3ccc(Br)cn3)C2=O)cc1,2.36%
21,Cc1cc(C)c2c(n1)nn1c(C)c(CCC(=O)NCCc3ccc(Cl)cc3)c(C)nc21,7.05%

row,SMILES,% Inhibition @ 10 uM
1,N#CCCN1CCN(S(=O)(=O)c2ccc(S(N)(=O)=O)cc2)CC1,-1.82%
2,Cc1ccc(CSc2nc(=O)c3c(n2C)NC(=O)CC3c2ccccc2OC(C)C)cc1 (stereo not drawn),3.84%
3,CC(C)c1nc2ccccc2n1Cc1ccccc1F,1.12%
4,CCc1ccc(/C=c2\sc3nc(-c4ccc(OC)c(OC)c4)nn3c2=O)cc1,-2.98%
5,CCCCNC(=O)CCc1c(C)nc2c(c(C)nn2-c2ccc(C)cc2)c1C,4.14%
6,Cc1cc(NC(=O)C23CC4CC(C2)CC(n2cncn2)(C4)C3)ccc1Br,7.76%
7,CCCCN(CC)CCNC(=O)C1c2ccccc2C(=O)N(CCOC)C1c1ccc(F)cc1 (stereo not drawn),-2.9%
8,CC(Oc1ccccc1)C(=O)N1CCN(c2cccc(Cl)c2)CC1 (stereo not drawn),-3.19%
9,COc1cccc2cc(-c3nc(-c4nonc4N)no3)c(=O)oc12,-5.05%
10,NC(=O)c1c(NC(=O)COc2ccccc2Br)sc2c1CCCC2,-2.66%
11,CC1CC(C)CN(C(=O)CSc2nnc(-c3ccccc3)o2)C1 (stereo not drawn),2.42%
12,Cc1ccc(N(CC(O)CN2CCOCC2)S(=O)(=O)c2ccc(C)cc2)cc1 (stereo not drawn),-4.5%
13,CCN1C(=O)/C(=C\c2ccc(N(C)C)cc2)C(C(=O)OC)=C1C,-1.32%
14,CCCC1C2CC=CC2c2cc(C(=O)O)ccc2N1C(=O)c1cccc([N+](=O)[O-])c1 (stereo not drawn),1.08%
15,CCOC(=O)C1CCCN(Cc2ccc(Cl)cc2)C1 (stereo not drawn),-1.86%
16,CN1C(=O)CC(N2CCN(c3ncccn3)CC2)C1=O (stereo not drawn),-3.48%
17,O=c1c2ccccc2nc2n1CCS2,-7.15%
18,COc1ccc(N(CC(=O)NC(C)C)S(=O)(=O)c2ccc(C)cc2)c(OC)c1,-1.43%
19,CCOC(=O)C1=CN(C(C)C)C=C(C(=O)OCC)C1c1ccc(F)c(Br)c1,-1.48%
20,Cc1cc(NC(=O)Nc2cccs2)no1,0.596%
21,Cc1ccc(CS(=O)(=O)c2cn(CC(=O)N(C)Cc3ccccc3)c3ccccc23)cc1,-4.89%

row,SMILES,% Inhibition @ 10 uM
1,CCOC(=O)c1c(C)oc2cc(Cl)c(OC)c(OC)c12,-5.59%
2,Cc1ccc(-c2nc(CS(=O)CC(=O)NCCCOC(C)C)c(C)o2)cc1 (stereo not drawn),-2.85%
3,CCOC(=O)C1C(=O)CC(O)(c2ccc(Br)cc2)CC1C=C(Cl)Cl (stereo not drawn),0.035%
4,CC(C)N1C(=O)S/C(=C/c2ccc(N3CCCCC3)o2)C1=O,-1.28%
5,CC(C)c1ccc(NC(=O)C2C3C=CC(CC3)C2C(=O)O)cc1 (stereo not drawn),-1.04%
6,COc1cccc(CN2CCN(c3ccc(F)cc3)CC2)c1,1.48%
7,COC(=O)C1=CN(CC2CCCO2)C=C(C(=O)OC)C1c1ccc2c(c1)OCO2 (stereo not drawn),1.84%
8,O=c1c(-c2ccccc2)c(N2CCN(Cc3ccccc3)CC2)c1=O,0.589%
9,Nc1c(-c2nc(-c3cccnc3)no2)nnn1-c1ccccc1C(F)(F)F,-0.759%
10,COCCCN1CN(CCc2ccccc2)CNC1=S,-1.92%
11,COC(=O)c1cc2oc(C)cc2n1CC(=O)NCc1ccco1,-11.9%
12,CC(=O)N(CN1C(=O)c2ccccc2C1=O)c1ccccc1C,2.27%
13,Cc1ccc(S(=O)(=O)NCC2CCC(C(=O)NCc3ccc(Cl)cc3)CC2)cc1 (stereo not drawn),2.35%
14,Cc1cc(Cl)ccc1OCc1cc(C2C(C#N)=C(N)Oc3[nH]nc(C)c32)sc1C (stereo not drawn),3.99%
15,CC1(C)CC(=O)C2=C(C1)c1c(ccc3ccccc13)NC2c1ccc(-c2ccc(Br)cc2)o1 (stereo not drawn),-4.3%
16,Cc1nc2cccnc2n1-c1ccc(C(=O)NC2CCCCC2C)cc1 (stereo not drawn),-0.0668%
17,O=C(Cc1ccc(F)cc1F)Nc1ccccc1,6.14%
18,CCOC(=O)N1CCC(NC(=O)CS(=O)(=O)Cc2nc(-c3cccc(Cl)c3)oc2C)CC1,14.4%
19,O=C(CCN1C(=O)c2ccccc2C1=O)N1CCN(c2ccccc2)CC1,5.31%
20,CC1CCN(C(=O)CN(c2ccc(Cl)cc2Cl)S(=O)(=O)c2ccccc2)CC1,-2.03%
21,O=C(NCCC1=CCCCC1)c1cc2c(s1)CS(=O)(=O)C2,-6.79%
